Test [1] concerns the target T1, _(ProtA)Mmm1 (S. cerevisiae) (UniProt P41800).
T1 sequence: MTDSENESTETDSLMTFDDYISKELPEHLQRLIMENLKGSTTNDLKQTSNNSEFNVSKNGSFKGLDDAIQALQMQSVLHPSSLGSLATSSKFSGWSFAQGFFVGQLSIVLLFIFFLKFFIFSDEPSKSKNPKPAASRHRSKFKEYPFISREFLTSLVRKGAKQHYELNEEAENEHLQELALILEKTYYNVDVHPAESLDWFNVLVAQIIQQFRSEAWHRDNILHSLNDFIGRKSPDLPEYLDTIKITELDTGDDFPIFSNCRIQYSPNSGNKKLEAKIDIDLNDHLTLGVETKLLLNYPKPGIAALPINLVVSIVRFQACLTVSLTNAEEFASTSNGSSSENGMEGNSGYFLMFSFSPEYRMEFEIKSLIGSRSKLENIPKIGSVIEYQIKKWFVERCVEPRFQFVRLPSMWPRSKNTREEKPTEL
Description: pull-down; whole-cell extracts (cryo-grinding) of ProtA-Mmm1 cells, 1% digitonin; IgG-Sepharose, elution with TEV protease; SDS-PAGE and immunodetection; cells with wild-type or mutant mdm10 forms, and mdm10Δ cells (Fig. 2c, Supplementary Fig. 2c, Fig. 4c).

Test [2] concerns the target T2, Tom7HA (S. cerevisiae) (UniProt P53507).
T2 sequence: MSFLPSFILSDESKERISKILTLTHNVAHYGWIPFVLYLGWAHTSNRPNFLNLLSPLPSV
The experiment in a line: co-IP; mitochondria with HA-tagged small Tom proteins lysed with 1% digitonin; anti-HA affinity matrix, 1 h at 4 °C; elution with SDS sample buffer, immunodetection (Fig. 4d).

For test [3], the target named is T3, _(ProtA)Sam50 (S. cerevisiae) (UniProt P53969).
T3 sequence: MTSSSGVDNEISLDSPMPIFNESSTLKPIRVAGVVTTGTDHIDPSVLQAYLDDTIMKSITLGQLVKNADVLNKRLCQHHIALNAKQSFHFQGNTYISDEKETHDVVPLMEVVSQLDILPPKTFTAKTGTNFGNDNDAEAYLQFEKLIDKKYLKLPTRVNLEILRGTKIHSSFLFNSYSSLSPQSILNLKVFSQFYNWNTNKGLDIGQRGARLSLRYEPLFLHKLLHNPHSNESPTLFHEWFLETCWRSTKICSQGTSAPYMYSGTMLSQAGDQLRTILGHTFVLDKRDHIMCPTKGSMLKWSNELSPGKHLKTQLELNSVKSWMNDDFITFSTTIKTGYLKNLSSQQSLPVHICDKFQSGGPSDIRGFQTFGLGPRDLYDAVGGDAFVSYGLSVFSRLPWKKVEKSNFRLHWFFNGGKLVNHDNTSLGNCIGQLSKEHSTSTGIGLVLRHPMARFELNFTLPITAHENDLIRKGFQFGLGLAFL
The experiment in a line: pull-down; whole-cell extracts of ProtA-Sam50 cells expressing wild-type or mutant mdm10 forms, 1% digitonin; IgG-Sepharose, elution with TEV protease; eluate on blue native electrophoresis, immunodetection with anti-Mdm10 (Fig. 2b, upper panel).

Test [4] addresses T4, Mdm10 (mitochondrial distribution and morphology protein Mdm10), wild type (S. cerevisiae) (UniProt P18409).
T4 sequence: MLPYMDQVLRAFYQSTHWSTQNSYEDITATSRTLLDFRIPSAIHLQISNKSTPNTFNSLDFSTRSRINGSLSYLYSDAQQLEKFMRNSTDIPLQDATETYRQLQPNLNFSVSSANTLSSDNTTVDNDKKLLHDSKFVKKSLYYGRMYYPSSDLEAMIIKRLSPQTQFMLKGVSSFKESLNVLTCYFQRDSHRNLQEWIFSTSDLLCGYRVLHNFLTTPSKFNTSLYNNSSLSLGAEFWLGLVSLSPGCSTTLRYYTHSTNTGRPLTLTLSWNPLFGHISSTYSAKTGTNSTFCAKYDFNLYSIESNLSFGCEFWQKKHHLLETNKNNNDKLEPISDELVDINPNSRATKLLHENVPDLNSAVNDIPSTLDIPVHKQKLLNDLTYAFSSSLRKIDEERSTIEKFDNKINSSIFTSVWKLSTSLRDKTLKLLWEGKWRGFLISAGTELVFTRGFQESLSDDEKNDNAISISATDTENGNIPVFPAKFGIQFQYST
Description: co-IP; mitochondria lysed with 1% digitonin; antibodies against Mdm10 coupled to protein A-Sepharose, 1 h at 4 °C; SDS-PAGE and immunodetection (Fig. 1c).

In test [5] the target is T3, _(ProtA)Sam50 (S. cerevisiae). Description: pull-down; whole-cell extracts of ProtA-Sam50 cells expressing wild-type or mutant mdm10 forms, 1% digitonin; IgG-Sepharose, elution with TEV protease; SDS-PAGE and immunodetection (Fig. 2a).
The target of test [6] is T5, Mdm10His (S. cerevisiae) (UniProt P18409).
T5 sequence: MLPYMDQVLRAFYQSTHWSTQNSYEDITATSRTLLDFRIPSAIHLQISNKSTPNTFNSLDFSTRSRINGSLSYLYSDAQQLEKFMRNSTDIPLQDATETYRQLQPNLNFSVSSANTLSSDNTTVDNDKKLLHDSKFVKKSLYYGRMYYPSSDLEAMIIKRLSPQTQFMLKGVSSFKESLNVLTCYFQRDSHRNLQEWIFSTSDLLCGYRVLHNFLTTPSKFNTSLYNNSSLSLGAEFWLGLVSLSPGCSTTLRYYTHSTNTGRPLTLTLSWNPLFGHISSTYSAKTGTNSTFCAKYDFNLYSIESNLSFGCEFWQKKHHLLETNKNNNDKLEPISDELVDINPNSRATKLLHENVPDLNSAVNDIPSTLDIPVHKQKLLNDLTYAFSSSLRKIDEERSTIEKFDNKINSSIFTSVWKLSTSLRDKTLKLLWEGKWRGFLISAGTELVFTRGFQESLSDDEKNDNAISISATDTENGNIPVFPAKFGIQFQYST
The experiment in a line: pull-down; whole-cell extracts of Mdm10His cells, 1% digitonin, 10 mM imidazole; Ni-NTA; SDS-PAGE and immunodetection; also Mdm10His mdm12Δ and Mdm10His mmm1Δ cells (Fig. 4b).

Test [7] addresses T6, Mdm10^G144L (S. cerevisiae) (UniProt P18409).
T6 sequence: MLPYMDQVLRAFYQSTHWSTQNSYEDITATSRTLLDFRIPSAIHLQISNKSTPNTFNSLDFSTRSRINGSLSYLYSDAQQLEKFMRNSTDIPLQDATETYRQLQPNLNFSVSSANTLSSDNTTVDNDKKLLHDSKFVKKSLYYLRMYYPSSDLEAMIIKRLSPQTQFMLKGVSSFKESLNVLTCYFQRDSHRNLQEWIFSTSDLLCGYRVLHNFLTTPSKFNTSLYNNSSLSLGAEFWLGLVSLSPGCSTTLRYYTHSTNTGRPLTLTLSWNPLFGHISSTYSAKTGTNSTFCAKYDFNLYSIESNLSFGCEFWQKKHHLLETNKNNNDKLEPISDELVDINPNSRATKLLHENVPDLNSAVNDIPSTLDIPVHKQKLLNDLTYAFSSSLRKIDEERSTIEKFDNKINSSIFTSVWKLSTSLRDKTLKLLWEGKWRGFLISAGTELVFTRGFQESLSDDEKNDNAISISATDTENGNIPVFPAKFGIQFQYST
The experiment in a line: co-IP; mitochondria lysed with 1% digitonin; antibodies against Mdm10 coupled to protein A-Sepharose, 1 h at 4 °C; SDS-PAGE and immunodetection (Fig. 1c).

The target of test [8] is T7, Mdm10^Y296A,F298A (S. cerevisiae) (UniProt P18409).
T7 sequence: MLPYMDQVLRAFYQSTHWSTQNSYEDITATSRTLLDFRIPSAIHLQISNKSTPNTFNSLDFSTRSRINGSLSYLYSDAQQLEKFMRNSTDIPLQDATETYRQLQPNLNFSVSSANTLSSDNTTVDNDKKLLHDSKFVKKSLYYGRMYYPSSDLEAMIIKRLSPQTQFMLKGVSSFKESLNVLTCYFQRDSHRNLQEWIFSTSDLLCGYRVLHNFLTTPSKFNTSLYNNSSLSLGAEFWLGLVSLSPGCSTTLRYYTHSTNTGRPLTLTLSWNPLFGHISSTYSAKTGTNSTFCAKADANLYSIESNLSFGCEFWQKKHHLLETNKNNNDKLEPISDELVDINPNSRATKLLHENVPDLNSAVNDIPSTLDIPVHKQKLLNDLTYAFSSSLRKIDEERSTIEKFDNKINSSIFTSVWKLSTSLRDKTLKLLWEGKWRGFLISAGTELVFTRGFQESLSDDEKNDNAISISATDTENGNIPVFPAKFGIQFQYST
The description is as above.

These are yes or no findings as the source states them, for the method shown. Binding seen in cells or lysates may run through a third protein. Some binding calls cover weakened binding; strength is not graded here. For part of these data: Where a sequence is shown, tags or fusion partners need not be part of it.

B1: Mdm12 (protein, UniProt Q92328 1-271)
chain: MSFDINWSTLESDNRLNDLIRKHLNSYLQNTQLPSYVSNLRVLDFDLGKVGPAITLKEITDPLDEFYDSIREEADQETEENNDNKEDSEHICPDRTIANHEGPKDDFEAPVVMPSPNDIQFLLEVEYKGDLLVTIGADLVLNYPVEKFMTLPVKLSISDIGLHSLCIVACLSKQLFLSFLCDVSDPALDDNQTVLDPKGPILAATKPLERISIVRSMKIETEIGEQYQGQGSVLRSVGELEQFLFTIFKDFLRKELAWPSWINLDFNDGDE
Take B1: in test [1], the binding entry is recorded as “binds”.

B2: Mdm10^Y296A,F298A (protein, UniProt P18409 1-493)
chain: MLPYMDQVLRAFYQSTHWSTQNSYEDITATSRTLLDFRIPSAIHLQISNKSTPNTFNSLDFSTRSRINGSLSYLYSDAQQLEKFMRNSTDIPLQDATETYRQLQPNLNFSVSSANTLSSDNTTVDNDKKLLHDSKFVKKSLYYGRMYYPSSDLEAMIIKRLSPQTQFMLKGVSSFKESLNVLTCYFQRDSHRNLQEWIFSTSDLLCGYRVLHNFLTTPSKFNTSLYNNSSLSLGAEFWLGLVSLSPGCSTTLRYYTHSTNTGRPLTLTLSWNPLFGHISSTYSAKTGTNSTFCAKADANLYSIESNLSFGCEFWQKKHHLLETNKNNNDKLEPISDELVDINPNSRATKLLHENVPDLNSAVNDIPSTLDIPVHKQKLLNDLTYAFSSSLRKIDEERSTIEKFDNKINSSIFTSVWKLSTSLRDKTLKLLWEGKWRGFLISAGTELVFTRGFQESLSDDEKNDNAISISATDTENGNIPVFPAKFGIQFQYST
As to B2, the binding result in test [2] and in test [3] was “binds” each time.

B3: Mdm10^G144L (protein, UniProt P18409 1-493)
chain: MLPYMDQVLRAFYQSTHWSTQNSYEDITATSRTLLDFRIPSAIHLQISNKSTPNTFNSLDFSTRSRINGSLSYLYSDAQQLEKFMRNSTDIPLQDATETYRQLQPNLNFSVSSANTLSSDNTTVDNDKKLLHDSKFVKKSLYYLRMYYPSSDLEAMIIKRLSPQTQFMLKGVSSFKESLNVLTCYFQRDSHRNLQEWIFSTSDLLCGYRVLHNFLTTPSKFNTSLYNNSSLSLGAEFWLGLVSLSPGCSTTLRYYTHSTNTGRPLTLTLSWNPLFGHISSTYSAKTGTNSTFCAKYDFNLYSIESNLSFGCEFWQKKHHLLETNKNNNDKLEPISDELVDINPNSRATKLLHENVPDLNSAVNDIPSTLDIPVHKQKLLNDLTYAFSSSLRKIDEERSTIEKFDNKINSSIFTSVWKLSTSLRDKTLKLLWEGKWRGFLISAGTELVFTRGFQESLSDDEKNDNAISISATDTENGNIPVFPAKFGIQFQYST
Regarding B3, the binding entry in test [2] is listed as “no binding”; in test [3], “binds”.

B4: Tom7 (protein, UniProt P53507 1-60)
chain: MSFLPSFILSDESKERISKILTLTHNVAHYGWIPFVLYLGWAHTSNRPNFLNLLSPLPSV
Regarding B4, in test [4], the binding result is “binds”.

B5: Sam37 (protein, UniProt P50110 1-327)
chain: MVKGSVHLWGKDGKASLISVDSIALVWFIKLCTSEEAKSMVAGLQIVFSNNTDLSSDGKLPVLILDNGTKVSGYVNIVQFLHKNICTSKYEKGTDYEEDLAIVRKKDRLLEYSLLNYVDVEISRLTDYQLFLNTKNYNEYTKKLFSKLLYFPMWYNTPLQLRSQARENCEEIIGSLTLEDDEEFVESKAMESASQLAQSKTFKIAHKNKIKGKQELQQVKYNLQFDNRLQSCVSNWLAARKKLDDSVILSSDLLFLANLYVQLGLPDGNRIRSKLEQTFGSELLNSMSNKIDDFVHRPSNNLEQRDPQFREQGNVVMSLYNLACKYI
Regarding B5, the binding entry in test [5] is listed as “binds”.

B6: Mdm34 (Mmm2) (protein, UniProt P53083 1-459)
chain: MSFRFNEAVFGDNSFNERIREKLSTALNSPSKKKLDILKSGIKVQKVDFPTIPQLEILDLDIITQPKSLAKGICKISCKDAMLRIQTVIESNLLLINEQDTPSFTMPQLINNGSFTIPITMTFSSIELEAITNIFVKNPGIGISFNDVDLDFKFDCSVKILQSTIERRLKESMHVVFKDVLPSLIFNTSQNWFTNRGESTSTIPGKREHHHQQTTMSRNVILDGSDFQELSPINMLRLSSIVSSRSTLSLHSTVMNSLSAIPGCLERQNLYRFISRMPSLNNYYSSQSFPQPKSSTVSSKQLVKPFYCSHNLLPKTVLDSSQYDLATITKIQSRLFDRSNSNDDNAKPRRRKIKCKKTRTPSNLQSQGEQAVDDSTAIETVTSTPVQTPIPELEEQSPPYLKTTVSIRDKYVIPEKISLNLDSKKDTSKKKPFYFIGLNSQEPSNNWKWGMEDSPPPYH
Consider B6, for which the binding result in test [6] is reported as “binds”.

B7: Sam35 (protein, UniProt P14693 1-329)
chain: MVSSFSVPMPVKRIFDTFPLQTYAAQTDKDEAVALEIQRRSYTFTERGGGSSELTVEGTYKLGVYNVFLEANTGAALATDPWCLFVQLALCQKNGLVLPTHSQEQTPSHTCNHEMLVLSRLSNPDEALPILVEGYKKRIIRSTVAISEIMRSRILDDAEQLMYYTLLDTVLYDCWITQIIFCASDAQFMELYSCQKLSGSIVTPLDVENSLLQKLSAKSLKISLTKRNKFQFRHREIVKSMQGVYHNHHNSVNQEQVLNVLFENSKQVLLGLKDMLKSDGQPTYLHLKIASYILCITNVKEPIKLKTFVENECKELVQFAQDTLKNFVQ
Turning to B7, the binding result in test [4], in test [7], in test [8] and in test [5] was “binds” throughout.

These data come from publication PMC5476798.
